The campaign covered roughly 310,000 compounds. About 14,000 (4.5%) showed an effect of 50% or more. The effect is printed as a negative number. The list shows a part of the results.
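Also: peak tail current of the secondary pulse compared with the same well before compound.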

For the experiment, the target named is human ether-à-go-go-related gene (hERG) potassium channel (human, UniProt Q12809). In words: primary screen, population patch clamp on CHO cells stably expressing hERG.
Sequence of human ether-à-go-go-related gene (hERG) potassium channel (Q12809 whole entry, looked up): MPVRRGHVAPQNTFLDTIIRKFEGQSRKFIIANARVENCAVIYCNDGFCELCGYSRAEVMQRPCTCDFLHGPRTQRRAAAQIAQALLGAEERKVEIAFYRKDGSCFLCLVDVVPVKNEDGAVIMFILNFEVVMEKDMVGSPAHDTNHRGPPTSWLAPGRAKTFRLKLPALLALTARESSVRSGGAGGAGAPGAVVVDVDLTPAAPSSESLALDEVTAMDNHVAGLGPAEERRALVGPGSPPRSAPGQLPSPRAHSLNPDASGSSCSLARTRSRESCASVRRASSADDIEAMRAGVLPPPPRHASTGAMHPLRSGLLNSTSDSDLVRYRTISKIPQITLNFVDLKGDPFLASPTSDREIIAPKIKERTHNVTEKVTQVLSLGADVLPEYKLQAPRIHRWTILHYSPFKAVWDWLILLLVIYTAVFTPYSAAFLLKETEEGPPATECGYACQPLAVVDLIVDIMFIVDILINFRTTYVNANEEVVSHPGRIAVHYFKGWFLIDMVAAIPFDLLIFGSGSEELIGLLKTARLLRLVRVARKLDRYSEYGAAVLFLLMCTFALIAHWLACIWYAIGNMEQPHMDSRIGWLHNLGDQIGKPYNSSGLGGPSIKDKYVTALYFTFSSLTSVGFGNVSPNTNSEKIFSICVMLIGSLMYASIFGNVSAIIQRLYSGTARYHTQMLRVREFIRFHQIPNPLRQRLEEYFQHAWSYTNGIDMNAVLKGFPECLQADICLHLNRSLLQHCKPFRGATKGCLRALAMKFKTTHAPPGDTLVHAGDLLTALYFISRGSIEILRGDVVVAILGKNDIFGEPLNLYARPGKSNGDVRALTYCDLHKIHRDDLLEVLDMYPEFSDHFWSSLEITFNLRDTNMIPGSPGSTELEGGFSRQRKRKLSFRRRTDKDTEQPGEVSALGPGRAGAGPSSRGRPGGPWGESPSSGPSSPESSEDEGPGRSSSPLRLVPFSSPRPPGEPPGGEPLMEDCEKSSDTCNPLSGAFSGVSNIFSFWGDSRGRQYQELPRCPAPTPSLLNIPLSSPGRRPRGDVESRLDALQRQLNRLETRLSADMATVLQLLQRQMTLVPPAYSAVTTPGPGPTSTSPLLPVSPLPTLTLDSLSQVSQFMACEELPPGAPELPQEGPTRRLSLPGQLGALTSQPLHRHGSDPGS
Regarding `Cc1cc(C)n2c(SCCC(C)C)nnc2n1`, the “hERG current change (%, negative = inhibition) at 10uM” value is reported as -31.9%. As to `Cc1ccc(/C=C(\C#N)C(=O)N2CCCC2)c(C)c1`, the “hERG current change (%, negative = inhibition) at 10uM” value was determined as 33.4%. The same measure for `CCc1ccc2nc(Nc3ccc(OC)cc3OC)c(C#N)cc2c1`: -2.62%; for `COC(=O)NC(=S)N1CCOCC1`: 0.991%. Take `COc1ccc(C(=O)C2CCN(C(=O)c3ccco3)CC2)cc1`: the “hERG current change (%, negative = inhibition) at 10uM” value is listed as -13.4%. As to `CC1CCc2c(C(=O)OCC(=O)Nc3cccc(S(=O)(=O)N4CCCCCC4)c3)csc2C1` (centres unmarked), the “hERG current change (%, negative = inhibition) at 10uM” value is given as 11.7%. The same measure for `Nc1ccc2c3c(cccc13)CC2`: -4.28%; for `CC(C)c1cc(C(=O)N/N=C/c2c[nH]c3ccccc23)n[nH]1`: 11.3%; for `COC(=O)C1=C(C)OC(N)=C(C#N)C1c1ccc(OC)c(CSc2ccccn2)c1` (centres unmarked): -25.8%. The same measure for `O=C(O)COn1c(-c2ccc(Cl)cc2)nc2ccc(Cl)cc21`: 21%; for `O=C(NCc1ccco1)C12CN(Cc3ccccc3)CC1C(c1ccc([N+](=O)[O-])cc1)=NO2` (centres unmarked): -70.8%. The same measure for `O=C(NCCCn1ccnc1)Nc1cccc2ccccc12`: 11.9%; for `COc1ccccc1NS(=O)(=O)c1cc(NC(=S)NCCN2CCOCC2)ccc1N1CCOCC1`: -22.9%.

With `Cc1cc(=O)oc2c(C)c(OCC(=O)NCCCN3CCCC3=O)ccc12`, the “hERG current change (%, negative = inhibition) at 10uM” value was 13%.

Take `CCOc1ccc(N/N=C(/C#N)C(N)=O)cc1`: the “hERG current change (%, negative = inhibition) at 10uM” value is recorded as 1.91%. For `Cc1cc(C)cc(NC(=O)CCC(=O)Nc2cc(C)on2)c1`, the “hERG current change (%, negative = inhibition) at 10uM” value was 8.01%.

For the compound `COc1ccc(-n2c(C)cc(C(=O)CSc3nn4c(=O)c(C(C)(C)C)nnc4s3)c2C)cc1`, the “hERG current change (%, negative = inhibition) at 10uM” value is -4.76%. The same measure for `CCOc1cc(C(=O)Nc2ccc3c(c2)OCO3)ccc1OCCOc1ccccc1Cl`: 11%; for `CCCCn1c(=O)[nH]c(=O)c2c1nc(COC(=O)c1c(C)noc1C)n2CCC`: -45.6%; for `Cc1onc(-c2c(F)cccc2Cl)c1C(=O)OCN1C(=O)c2ccccc2C1=O`: -8.71%. The same measure for `Br.c1ccc2oc(SCc3cn4ccsc4n3)nc2c1`: -12.9%; for `Cc1ccc(S(=O)(=O)NCC(=O)N2CCc3ccccc3C2)cc1`: -4.13%. As to `Cc1ccc(S(=O)(=O)NCCC(=O)Nc2ncccc2O)cc1C`, the “hERG current change (%, negative = inhibition) at 10uM” value is given as 10.4%.

With `COc1ccc(-c2cn3ccc4ccccc4c3n2)cc1`, the “hERG current change (%, negative = inhibition) at 10uM” value turned out to be 7.17%.

Take `Cc1ccc(CNC(=O)c2cc(=O)c3cc(C)ccc3o2)cc1`: the “hERG current change (%, negative = inhibition) at 10uM” value came to 18.7%. For `Cc1cc(C)nc(NC(=O)COc2cc(Cl)cc(Cl)c2)n1`, the “hERG current change (%, negative = inhibition) at 10uM” value is 1.44%. The same measure for `COc1ccc(C2CC(c3cccs3)=NN2C(=O)CSc2nc(=O)n3ccc(C)cc3n2)cc1` (centres unmarked): -65.4%; for `Fc1ccccc1Cn1nnc2c(NCCc3ccccn3)ncnc21`: -17.2%; for `CCN(CC)CCn1c(SCC(=O)NCc2ccco2)nc2c(sc3ccccc32)c1=O`: -68.2%. As for `CCC(=O)N1CCc2cc(S(=O)(=O)NCCC(=O)Nc3ccc(OC)cc3)ccc21`, the “hERG current change (%, negative = inhibition) at 10uM” value was -26%. On to `Cn1c(C(=O)Nc2ccc3c(c2)OCO3)cc2c(=O)n(C)c3ccccc3c21`, for which the “hERG current change (%, negative = inhibition) at 10uM” value is listed as 1.76%. The same measure for `O=C(OCCCCOC(=O)c1ccccc1)c1ccccc1`: 9.2%; for `O=S(=O)(c1ccc(F)cc1)N1CCN(C(=S)NC2CCCC2)CC1`: -11.7%; for `O=C(COC(=O)C1CC2CCCC(C1)C2=O)NC1CCCCC1` (centres unmarked): 11.8%. The same measure for `CC1=C(c2ccc(C)cc2)S(=O)(=O)N(CC(=O)O)C1=O`: -6.72%. The same measure for `C=CCSC1=N/C(=C\c2cc(OC)c3c(c2)OCO3)C(=O)S1`: 6.54%; for `CCCNC(=O)COC(=O)c1ccccc1C(=O)c1ccc(Cl)c([N+](=O)[O-])c1`: 9.9%. Take `N#Cc1ccc(NC(=O)COC(=O)c2ccc(F)c(S(=O)(=O)N3CCOCC3)c2)cc1`: the “hERG current change (%, negative = inhibition) at 10uM” value was -10.8%.

As for `O=C(Nc1ccncc1)Nc1cccc(C(F)(F)F)c1`, the “hERG current change (%, negative = inhibition) at 10uM” value is -10.2%. The same measure for `COc1ccccc1OCC(=O)NCC1CCCN(Cc2cnn(C)c2C)C1` (centres unmarked): 8.9%. The same measure for `CSCCC(NC(=O)c1ccccc1Cl)C(=O)OCC(=O)N1CCCC1=O` (centres unmarked): 10.9%; for `CN(c1cccc(NC(=O)c2cccc([N+](=O)[O-])c2)c1)S(C)(=O)=O`: 13.1%. `Cc1cccc2cc(C3CC(c4ccco4)=NN3S(=O)(=O)c3ccccc3)c(Cl)nc12` (centres unmarked): the “hERG current change (%, negative = inhibition) at 10uM” value is on record as -1.79%. For the compound `N/N=C(\c1ccccc1)c1cc(Cl)ccc1N`, the “hERG current change (%, negative = inhibition) at 10uM” value is 8.63%.

For the origin of these results see PMC4336329 (PLoS ONE, 2015).
